Measured values: the supplement of paper PMC6531468
The list shows a part of the results. These are enrichments in a pooled selection; single values are uncertain. Each score is taken over the longer molecules that contain the sequence shown.

biological target: IMP3 full-length (UniProt O00425); assay: 6-mer SELEX enrichment z-score vs GST control; IMP3 is the RNA-binding protein IGF2BP3; higher = more enriched by binding; conditions: construct: FL IMP3 (1-579); SELEX round: R4
Description: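 SELEX-seq with GST-tagged full-length IMP3 and an N40 RNA pool, round 4. Each 6-mer is scored as an enrichment z-score of sequence tags containing it, normalised to the matching GST SELEX round. RNA written as DNA (T = U).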

Sequence of UniProt O00425 (O00425 whole entry): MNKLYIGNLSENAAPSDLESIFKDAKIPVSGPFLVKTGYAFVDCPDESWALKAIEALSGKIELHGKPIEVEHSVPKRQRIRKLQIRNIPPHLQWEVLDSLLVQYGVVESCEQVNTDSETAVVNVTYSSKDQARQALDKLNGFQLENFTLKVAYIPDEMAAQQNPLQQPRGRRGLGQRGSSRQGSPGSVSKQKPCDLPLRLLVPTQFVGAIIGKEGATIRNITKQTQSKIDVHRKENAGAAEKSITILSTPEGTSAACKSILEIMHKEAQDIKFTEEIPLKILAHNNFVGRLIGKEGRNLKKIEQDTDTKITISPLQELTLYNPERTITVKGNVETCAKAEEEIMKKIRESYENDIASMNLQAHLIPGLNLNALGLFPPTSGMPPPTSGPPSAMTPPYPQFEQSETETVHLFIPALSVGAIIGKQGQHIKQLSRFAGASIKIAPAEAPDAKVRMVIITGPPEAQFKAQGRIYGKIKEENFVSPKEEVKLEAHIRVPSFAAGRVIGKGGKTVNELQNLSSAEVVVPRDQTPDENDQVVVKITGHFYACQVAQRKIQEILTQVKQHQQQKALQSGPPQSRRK

| Sequence | 6-mer SELEX enrichment z-score |
| --- | --- |
| CCGTAG | -0.511 |
| AGAACC | -1.43 |
| ATCGTT | 0.086 |
| CGTCCC | -0.201 |
| TACTGT | -0.022 |
| TCAGGT | 0.637 |
| GCGTGA | -0.391 |
| TCATCA | 3.05 |
| CGGCTG | 0.939 |
| GCTAAC | -0.276 |
| GCTGGC | 0.734 |
| TCAACC | -0.238 |
| GGTTGG | 0.332 |
| AAATGT | -1.11 |
| TAGTCC | -0.194 |
| ACGGGC | 0.249 |
| TCACGC | 0.733 |
| ACCATT | 0.698 |
| ACGAAA | -1.79 |
| TCTGAC | -0.24 |

| Sequence | 6-mer SELEX enrichment z-score |
| --- | --- |
| CTGCAT | 0.622 |
| TCCAAG | -0.779 |
| CTTAGC | -0.313 |
| ATCGCC | 0.218 |
| CCCATA | -0.414 |
| TGGTAA | -0.291 |
| ATACCT | -1.04 |
| GTAGTC | -0.06 |
| CACCGT | 0.368 |
| CAGTTG | 0.201 |
| CGGACG | -0.42 |
| TAGGAA | -0.336 |
| TATGAG | -0.464 |
| CCTTGT | -0.324 |
| GAGTTC | -0.014 |
| CATCGA | 0.37 |
| TTGCGC | -0.204 |
| CTTGAG | -0.892 |
| ACAGGT | 0.809 |
| TCGCTT | 0.207 |
